Hit rate of the full screen: of about 310,000 compounds, about 2,200 (0.71%) showed an effect of 50% or more. The effect is printed as a negative number. The list shows a part of the results.

We go through 88 compounds from article PMC4336329 (PLoS ONE, 2015).

Sequence of human ether-à-go-go-related gene (hERG) potassium channel (Q12809 whole entry, looked up): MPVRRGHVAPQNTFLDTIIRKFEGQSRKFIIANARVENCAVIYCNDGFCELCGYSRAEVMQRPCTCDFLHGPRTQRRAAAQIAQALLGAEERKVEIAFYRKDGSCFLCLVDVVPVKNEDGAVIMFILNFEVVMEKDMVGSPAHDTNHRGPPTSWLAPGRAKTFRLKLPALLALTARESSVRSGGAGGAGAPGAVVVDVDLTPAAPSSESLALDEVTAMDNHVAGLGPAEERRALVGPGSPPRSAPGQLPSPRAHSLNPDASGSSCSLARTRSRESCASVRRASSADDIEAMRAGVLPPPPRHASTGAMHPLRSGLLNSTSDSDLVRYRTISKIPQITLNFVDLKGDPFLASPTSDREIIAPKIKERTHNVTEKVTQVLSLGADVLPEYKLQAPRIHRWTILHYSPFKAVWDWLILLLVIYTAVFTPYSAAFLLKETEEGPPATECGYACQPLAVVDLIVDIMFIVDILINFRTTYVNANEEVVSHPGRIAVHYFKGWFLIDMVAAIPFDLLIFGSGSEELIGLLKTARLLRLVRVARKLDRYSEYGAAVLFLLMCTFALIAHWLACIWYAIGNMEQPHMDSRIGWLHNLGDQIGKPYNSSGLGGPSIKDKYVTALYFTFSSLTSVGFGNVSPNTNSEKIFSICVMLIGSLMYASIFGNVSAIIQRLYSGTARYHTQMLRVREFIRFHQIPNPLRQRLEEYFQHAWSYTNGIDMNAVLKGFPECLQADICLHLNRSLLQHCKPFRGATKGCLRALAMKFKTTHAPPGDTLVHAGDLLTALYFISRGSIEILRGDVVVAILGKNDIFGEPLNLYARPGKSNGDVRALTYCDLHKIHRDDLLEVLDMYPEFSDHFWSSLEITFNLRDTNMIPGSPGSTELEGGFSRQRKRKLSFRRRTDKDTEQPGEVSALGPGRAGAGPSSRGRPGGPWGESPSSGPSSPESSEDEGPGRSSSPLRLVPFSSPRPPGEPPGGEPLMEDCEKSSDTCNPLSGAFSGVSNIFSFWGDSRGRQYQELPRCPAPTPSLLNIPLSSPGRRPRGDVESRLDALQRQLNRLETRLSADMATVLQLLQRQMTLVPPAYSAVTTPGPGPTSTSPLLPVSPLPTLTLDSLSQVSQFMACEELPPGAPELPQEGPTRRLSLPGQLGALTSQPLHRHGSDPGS

This test addresses human ether-à-go-go-related gene (hERG) potassium channel (human, UniProt Q12809). The test is described as follows: primary screen, population patch clamp on CHO cells stably expressing hERG.
On to `COc1ccc(N2CC(C(=O)Nc3nnc(C4CCCCC4)s3)CC2=O)cc1` (stereo not shown), for which the “hERG current change (%, negative = inhibition) at 1uM” value came to 7.46%. In the case of `CCN(C(=O)C1CSC2(C)CCC(=O)N12)c1nc2c(C)cccc2s1` (stereo not shown), the “hERG current change (%, negative = inhibition) at 1uM” value was 18.9%.

As for `CCCCNC(=O)c1c(N)n(Cc2ccc3c(c2)OCO3)c2nc3ccccc3nc12`, the “hERG current change (%, negative = inhibition) at 1uM” value came out at 19.2%. In the case of `CCc1ccc(C(=O)NNC(=O)CCN2CCN(Cc3ccccc3)CC2)cc1`, the “hERG current change (%, negative = inhibition) at 1uM” value was -13%. Under `CCC(C)(C)c1ccc(OCC(=O)N(C)C)c(C(C)(C)CC)c1` stands 6.22%; under `O=C(NC1CCN(Cc2ccccc2)CC1)c1cccc(S(=O)(=O)Nc2cc(C(F)(F)F)ccc2Cl)c1`, 11.6%; under `Cc1onc(-c2ccccc2)c1C(=O)NC(=S)NNC(=O)c1cc(-c2ccc(F)cc2)n[nH]1`, 12.3%. With `NS(=O)(=O)c1ccc(CCNC(=O)CSc2ccccc2)cc1`, the “hERG current change (%, negative = inhibition) at 1uM” value was 2.49%. With `O=S(=O)(CCN1C=CC(C(F)(F)F)=NCC1)c1ccc(Cl)cc1Cl`, the “hERG current change (%, negative = inhibition) at 1uM” value was 7.41%. As to `CCN(CC)S(=O)(=O)c1ccc(C(=O)NCc2n[nH]c(=S)n2Cc2ccccc2)cc1`, the “hERG current change (%, negative = inhibition) at 1uM” value amounted to 7.74%. Under `CCCN1C(=O)C(=O)N(CC(=O)c2cc(C)n(C3CC3)c2C)C1=O` stands 6.3%. Consider `Cc1ccsc1C(=O)Nc1nccs1`, for which the “hERG current change (%, negative = inhibition) at 1uM” value was 12.9%. With `CCCCc1ccc(NC2=NCCCS2)cc1`, the “hERG current change (%, negative = inhibition) at 1uM” value is listed as 5.57%. For `Cn1c(SCC(=O)NCc2cccs2)nnc1-c1cccs1`, the “hERG current change (%, negative = inhibition) at 1uM” value is listed as -10.6%. Under `NS(=O)(=O)c1ccc(NC(=O)CN2C(=O)C3C4C=CC(C4)C3C2=O)cc1` (stereo not shown) stands 15.4%; under `CCOc1ccc(CCNC(=O)CN(C)S(=O)(=O)c2cccs2)cc1OCC`, 13.5%; under `CCn1cc(C(=O)NCc2ccc3c(c2)OCO3)c2cc(OC)c(OC)cc2c1=O`, 4.91%. Consider `C=CCn1cc(/C=N/NC(=O)COc2cccc3cccnc23)c2ccccc21`, for which the “hERG current change (%, negative = inhibition) at 1uM” value is recorded as 18.4%. Regarding `O=C(CSc1ccc2nc(-c3ccccc3)cn2n1)NCC1CCCO1` (stereo not shown), the “hERG current change (%, negative = inhibition) at 1uM” value turned out to be 8.39%. As for `Cn1c(N)c(C(=O)COC(=O)CC2CC3CCC2C3)c(=O)n(C)c1=O` (stereo not shown), the figure is -19.6%; as for `CCOC(=O)N1CCN(Cc2ccccc2Cl)CC1`, 6.35%; as for `CCn1c(O)c(N=Nc2ccc3ccccc3n2)c2ccccc21`, 5.1%.

On to `COc1cccc(CNC(=O)CCNC(=O)C2CCN(S(=O)(=O)c3ccc(F)cc3)CC2)c1`, for which the “hERG current change (%, negative = inhibition) at 1uM” value is 12.6%. Turning to `NC1=NC(=O)/C(=C/c2cn(CCC(=O)O)nc2-c2ccc(F)cc2)S1`, the “hERG current change (%, negative = inhibition) at 1uM” value came out at 4.71%.

`COc1ccc(N(C(=O)c2cc3ccccc3oc2=O)C2C=CS(=O)(=O)C2)cc1` (stereo not shown): the “hERG current change (%, negative = inhibition) at 1uM” value stood at 2.6%.

`COc1ccc(NC(=O)CSc2nc3ccccc3c(=O)n2CCNC(C)=O)c(OC)c1`: the “hERG current change (%, negative = inhibition) at 1uM” value was -12.5%. On to `CCOc1cc(/C=C2\SC(=Nc3ccccc3)N(c3ccccc3)C2=O)ccc1OCC(=O)O`, for which the “hERG current change (%, negative = inhibition) at 1uM” value came to 3.33%. For the compound `COC(=O)c1cc(S(=O)(=O)NCCc2ccccc2)c[nH]1`, the “hERG current change (%, negative = inhibition) at 1uM” value stood at 7.64%. As for `COC(=O)NNC(=O)c1ccccc1C`, the figure is -8.76%; as for `CCOC(=O)C(c1ccccc1)C(Nc1ccccc1)c1ccccn1` (stereo not shown), 11.5%; as for `CCOC(=O)c1c(NC(=O)c2ccc(S(=O)(=O)N(C)CC3CCCO3)cc2)sc2c1CC(C)(C)NC2(C)C` (stereo not shown), 11.5%. For the compound `CCN(c1cccc(C)c1)S(=O)(=O)c1ccc(OC)c([N+](=O)[O-])c1`, the “hERG current change (%, negative = inhibition) at 1uM” value is recorded as 10.3%. As for `CCn1cc(C(=O)OCC(=O)c2ccc(Cl)cc2)c(=O)c2ccc(C)nc21`, the figure is 4.76%; as for `Cc1cc(C)n(-c2ccc(NC(=O)C3CCCCN3C(=O)c3cccs3)cc2)n1` (stereo not shown), 0.895%. As for `O=C(NCc1ccc(Cl)cc1)C1CCCO1` (stereo not shown), the “hERG current change (%, negative = inhibition) at 1uM” value is on record as 2.36%.

Take `Cc1cccc(NC(=O)CSc2nncn2-c2ccccn2)c1`: the “hERG current change (%, negative = inhibition) at 1uM” value is 4.07%.

For `CCOC(=O)c1[nH]c(C)c(/C(O)=C2\C(=O)C(=O)N(CCN(C)C)C2c2ccncc2)c1C` (stereo not shown), the “hERG current change (%, negative = inhibition) at 1uM” value was 14.5%.

For `CN1CCN(CCOCCOc2ccc(Br)cc2Cl)CC1.O=C(O)C(=O)O`, the “hERG current change (%, negative = inhibition) at 1uM” value was 10.1%.

Take `CCOC(=O)c1c(C)n(-c2ccc(OC)cc2)c2c(C/C(C)=N/O)c(Br)c(OC)c(O)c12`: the “hERG current change (%, negative = inhibition) at 1uM” value was determined as 5.62%. Regarding `CCC(C)(C)n1nnnc1C(c1ccc(OC)cc1)N1CCN(C(=O)c2ccco2)CC1` (stereo not shown), the “hERG current change (%, negative = inhibition) at 1uM” value was found to be 1.97%. Under `CC(=O)Oc1ccc(Cl)cc1/C=C/c1cc(OC(C)=O)c2ccccc2n1` stands 17.8%; under `Cc1ccccc1NS(=O)(=O)CCCCC(Cl)(Cl)Cl`, 12.6%; under `CC(C)C(=O)Nc1ccc(C(=O)NNC(=O)NC2CCCCC2)cc1`, 21.9%. Regarding `COc1ccc(NC(=O)Cn2ccc3c(OC)cccc3c2=O)cc1`, the “hERG current change (%, negative = inhibition) at 1uM” value was 10.8%.

Consider `CCCCSc1nc(O)c(C2OC(=O)c3c2ccc(OC)c3OC)c(=O)n1C` (stereo not shown), for which the “hERG current change (%, negative = inhibition) at 1uM” value worked out at 1.25%.

As to `COc1ccc(NC(=O)c2cc(S(=O)(=O)N(C)C)ccc2N2CCCC2)cc1Cl`, the “hERG current change (%, negative = inhibition) at 1uM” value was 5.07%. In the case of `Cc1cc(C)n(-c2ccc(C(=O)OCc3ccccc3)cc2)n1`, the “hERG current change (%, negative = inhibition) at 1uM” value turned out to be 13.2%.

`CSc1nc(N)nc(N(C)C)n1`: the “hERG current change (%, negative = inhibition) at 1uM” value was 13.5%. For `COc1ccc(CN(C(=O)/C=C/c2ccco2)C2CCS(=O)(=O)C2)cc1` (stereo not shown), the “hERG current change (%, negative = inhibition) at 1uM” value is 11.9%. As for `CC(C(=O)NC(N)=O)N1C(=O)NC(c2ccccc2)(c2ccccc2)C1=O` (stereo not shown), the figure is -0.156%; as for `CCOc1ccccc1Nc1nnc(SCC(=O)NC(Cc2c[nH]c3ccccc23)C(=O)O)s1` (stereo not shown), 11.9%; as for `C=CCOc1ccc(/C=N/NC(=O)CN2CCCCC2)cc1OC`, -6.47%.

Take `OCC1(CCc2ccccc2)CCN(Cc2cc(F)ccc2-n2cccn2)CC1`: the “hERG current change (%, negative = inhibition) at 1uM” value was -85.3%. On to `CC1(C)Cc2nc(-c3ccccc3)nc(SCC(O)CO)c2CO1` (stereo not shown), for which the “hERG current change (%, negative = inhibition) at 1uM” value was 4.23%.

Regarding `CCOC(=O)c1c(C)[nH]c(C(=O)NCc2ccco2)c1C`, the “hERG current change (%, negative = inhibition) at 1uM” value came to 8.03%.

In the case of `CN1CCN(c2ccccc2NC(=O)c2ccc(F)cc2)CC1`, the “hERG current change (%, negative = inhibition) at 1uM” value is given as 2.08%. Take `CCCCc1nc2ccccc2c(=O)n1-c1ccccc1O`: the “hERG current change (%, negative = inhibition) at 1uM” value stood at 9.52%. Regarding `OCC1(CCCc2ccccc2)CCN(Cc2cnc(N3CCOCC3)s2)CC1`, the “hERG current change (%, negative = inhibition) at 1uM” value is -6.15%.

With `Cc1ccc2c(c1)C(=O)CC(O)(C(F)(F)F)O2` (stereo not shown), the “hERG current change (%, negative = inhibition) at 1uM” value came to 13.5%. As for `CCCn1nnc2c(=O)oc3ccccc3c21`, the figure is 8.13%; as for `Cn1cc(C(=O)c2ccc(Cl)cc2Cl)cc1C=O`, 6.93%; as for `Cc1c(NC(=O)CN2CCCc3ccccc32)c(=O)n(-c2ccccc2)n1C`, 4.77%.

As to `Cc1ccc2sc(-c3ccc(NC(=O)c4cc(-n5cnnc5)ccc4Cl)cc3)nc2c1`, the “hERG current change (%, negative = inhibition) at 1uM” value is recorded as -3.41%. Regarding `CCCC(=O)Nc1ccc(Cl)c(NC(=O)c2ccco2)c1`, the “hERG current change (%, negative = inhibition) at 1uM” value was 12%. Consider `O=C1CCCN1CCC1CCCCN1Cc1nc(COc2ccccc2)no1` (stereo not shown), for which the “hERG current change (%, negative = inhibition) at 1uM” value amounted to 10.8%. As for `CC(Sc1ccc(Cl)cc1)C(=O)NCC(c1ccco1)N1CCCCC1` (stereo not shown), the “hERG current change (%, negative = inhibition) at 1uM” value is given as -0.296%. As for `CCOCC(=O)Nc1nnc(Cc2ccc(OC)cc2)s1`, the figure is 8.4%. `CC(=O)O/N=C/c1c(Cl)n(C)c2ccccc12`: the “hERG current change (%, negative = inhibition) at 1uM” value is reported as 6.55%. Take `Cc1ccc(CN2C3CCCC2CC(NC(=O)c2ccc(F)cc2)C3)cc1` (stereo not shown): the “hERG current change (%, negative = inhibition) at 1uM” value was -77%. With `Cn1cccc1C(=O)NCc1ccc(S(N)(=O)=O)cc1`, the “hERG current change (%, negative = inhibition) at 1uM” value came out at 11.7%. For `Cc1onc(-c2ccccc2)c1C(=O)Nc1nnc(N2CCCCCC2)s1`, the “hERG current change (%, negative = inhibition) at 1uM” value worked out at 6.25%. As for `Cc1nnc(NC(=O)c2ccc3c(c2)C(=O)N(CC2CCCO2)C3=O)s1` (stereo not shown), the “hERG current change (%, negative = inhibition) at 1uM” value is recorded as -0.711%.

As to `COc1ccc(OC)c(CN2C(=O)CCC2(C)C(=O)NC2CCCCCC2)c1` (stereo not shown), the “hERG current change (%, negative = inhibition) at 1uM” value is reported as -2.84%. Turning to `Cc1cc(C)c(S(=O)(=O)Nc2ccccc2C(=O)N2CCCC2)c(C)c1`, the “hERG current change (%, negative = inhibition) at 1uM” value was 9.97%. Regarding `COCC(=O)NC1CCN(CC(=O)Nc2ccc(OC)cc2[N+](=O)[O-])CC1`, the “hERG current change (%, negative = inhibition) at 1uM” value amounted to 8.93%.

As to `COc1ccc(C(=O)NNC(=O)CSc2nnc(COc3ccccc3OC)n2C)cc1`, the “hERG current change (%, negative = inhibition) at 1uM” value worked out at 11.9%. Under `CN(CCCC(=O)Nc1ccccc1)S(=O)(=O)c1ccc(Cl)cc1` stands -10.3%; under `CSc1nc(N)c(N=Nc2ccc([As](=O)(O)O)cc2)c(=O)[nH]1`, 6.7%. Regarding `Cc1cc2n(n1)C(c1c[nH]c3ccccc13)Nc1ccccc1-2` (stereo not shown), the “hERG current change (%, negative = inhibition) at 1uM” value was 10.5%.

As for `Cn1nnc(NC(=O)c2ccco2)n1`, the “hERG current change (%, negative = inhibition) at 1uM” value stood at 5.17%. Take `CN(C)S(=O)(=O)c1cc(S(=O)(=O)N(C)C)c(Cl)cc1N`: the “hERG current change (%, negative = inhibition) at 1uM” value was 4.44%. With `CCN(CC)CCNC(=O)Cn1nc(Cc2ccccc2)c2ccccc2c1=O`, the “hERG current change (%, negative = inhibition) at 1uM” value was -25.1%. As for `COCCNc1nc2c(c(=O)n(C)c(=O)n2C)n1Cc1cccc(C(F)(F)F)c1`, the “hERG current change (%, negative = inhibition) at 1uM” value is -6.46%. For the compound `COc1cc([N+](=O)[O-])cc(CN2CCCCC2)c1O`, the “hERG current change (%, negative = inhibition) at 1uM” value is on record as -1.98%.

Take `O=C(CN1CCN(S(=O)(=O)c2ccc(F)cc2)CC1)Nc1ccc(Cl)c(C(F)(F)F)c1`: the “hERG current change (%, negative = inhibition) at 1uM” value came to 9%.

Take `CC1CC(C)CN(c2oc(-c3ccccc3Cl)nc2C#N)C1` (stereo not shown): the “hERG current change (%, negative = inhibition) at 1uM” value was 11.6%. In the case of `CC(=O)NCCC(=O)Nc1cc(S(=O)(=O)N2CCCCC2)ccc1N1CCCCC1`, the “hERG current change (%, negative = inhibition) at 1uM” value turned out to be 12.6%.

In the case of `O=C(COc1ccccc1N1C(=O)c2ccccc2C1=O)c1ccc(Cl)cc1`, the “hERG current change (%, negative = inhibition) at 1uM” value was -4.06%.
